Assay results reported in the supplement of paper PMC3334620.
Whole data set: some 33,000 sequences, median “E-score (-0.5 to 0.5)” near -0.054, cut for the highest 2% near 0.35. The list shows a part of the results.

Target: T1, Stb5 (UniProt P38699)
T1 sequence: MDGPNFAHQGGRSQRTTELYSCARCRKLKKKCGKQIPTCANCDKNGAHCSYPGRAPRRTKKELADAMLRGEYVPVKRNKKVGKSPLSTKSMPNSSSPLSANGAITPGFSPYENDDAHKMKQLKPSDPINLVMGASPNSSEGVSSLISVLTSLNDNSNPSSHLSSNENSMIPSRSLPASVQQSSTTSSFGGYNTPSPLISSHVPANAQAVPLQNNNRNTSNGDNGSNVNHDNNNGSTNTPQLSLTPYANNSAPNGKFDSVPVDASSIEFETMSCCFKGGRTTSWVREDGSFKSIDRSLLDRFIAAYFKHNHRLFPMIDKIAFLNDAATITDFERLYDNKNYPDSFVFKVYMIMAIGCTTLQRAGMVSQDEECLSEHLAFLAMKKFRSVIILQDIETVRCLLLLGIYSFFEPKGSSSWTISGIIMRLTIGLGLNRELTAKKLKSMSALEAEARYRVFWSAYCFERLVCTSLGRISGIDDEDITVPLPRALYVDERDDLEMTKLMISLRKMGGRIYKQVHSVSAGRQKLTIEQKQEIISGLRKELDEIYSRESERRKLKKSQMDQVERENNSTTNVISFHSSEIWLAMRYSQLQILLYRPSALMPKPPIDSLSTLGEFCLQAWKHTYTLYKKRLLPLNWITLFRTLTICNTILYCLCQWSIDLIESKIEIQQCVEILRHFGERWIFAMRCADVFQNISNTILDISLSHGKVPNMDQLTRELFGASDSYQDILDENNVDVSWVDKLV
Assay: PBM E-score (8-mer binding enrichment) (E-score (-0.5 to 0.5)); higher = stronger / more preferred TF binding; most listed sequences are background and not binding sites
Settings: protein concentration: 200 nM; construct: GST-full length
Summary of the method: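 Using PURExpress in vitro transcription/translation, GST-tagged yeast transcription factors were made in full-length or DNA-binding-domain form. These were applied at about 100-200 nM to double-stranded universal all-10-mer Agilent arrays, and bound protein was detected with fluorescent anti-GST. Scans were normalised with masliner before the Universal PBM Analysis Suite assigned E-scores to ungapped eight-base words pooled with their reverse complements.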

Row | Sequence | PBM E-score
1 | TATGGAGA | -0.0821
2 | CCTGAATC | -0.0703
3 | GAATGATC | -0.177
4 | ACGTACCG | 0.176
5 | CGTTCGTA | -0.00665
6 | AGGTACCT | -0.277
7 | CGTAAGAG | 0.0393
8 | GCTAAGAA | -0.0209
9 | ACCATACA | -0.0607
10 | GAGAGCGC | -0.0261
11 | CGCGACCG | 0.173
12 | CAAGCCGG | 0.176
13 | TCGACTCA | -0.378
14 | ACGCCTAT | -0.198
15 | AAGCTTTC | -0.0152
16 | ATTTCCTA | -0.0241
17 | TCAGCAAA | -0.197
18 | ATCCGTCA | 0.162
19 | AAGTTTCT | -0.108
20 | ACGGGCGG | 0.278
21 | AAAAGTAC | 0.0236
22 | GGTTAGTA | -0.00434
23 | ACTAGTTC | -0.00942
24 | ACCCCTTG | -0.304
25 | CCAGATTA | 0.0275

Row | Sequence | PBM E-score
26 | ATGTTACA | -0.104
27 | ATATACAG | -0.0727
28 | CAGCTTGC | -0.109
29 | GCGAACGC | 0.101
30 | CTAGCAGC | -0.116
31 | TAAGTTCA | -0.105
32 | CACTGTTC | -0.226
33 | AGTTCGGG | 0.213
34 | GCATCGTA | 0.00812
35 | GCAGTCTA | -0.141
36 | GAAATTAC | -0.00713
37 | GCAGCTAA | 0.0139
38 | CGCAGTAA | 0.132
39 | ATCTGCAG | -0.0623
40 | GGCTTGAA | -0.0431
41 | CCAACCCG | -0.0445
42 | GGTTTTAA | 0.305
43 | AACATGCA | -0.213
44 | AGACCCTG | -0.347
45 | TAATCGAA | -0.0124
46 | CCTAGCTC | -0.0992
47 | CAAGATGG | -0.13
48 | CCACTGCA | -0.266
49 | AAATGGGA | -0.122
50 | CAAATTGG | -0.192

Row | Sequence | PBM E-score
51 | AGACGGCC | 0.116
52 | GCGAAAAA | 0.0259
53 | AGACCTAC | -0.0437
54 | CATCTAAG | 0.0271
55 | TCGATAAA | 0.092
56 | CACTTTGG | 0.0234
57 | GCCTTCAC | 0.0498
58 | AGGGGTTA | 0.239
59 | AATGGCGA | 0.0389
60 | ACACCGTG | 0.416
61 | CCGGTTGC | 0.232
62 | GTGCTTTA | -0.0465
63 | AATTCGTA | -0.11
64 | CCTTTGCC | -0.131
65 | GAGAGCGA | -0.225
66 | CACACATG | -0.0905
67 | GGTGTGAA | 0.22
68 | ACATTAGA | -0.214
69 | CCTAATAG | -0.0857
70 | CGTTGCAG | -0.146
71 | ACATCTAG | -0.273
72 | CTTCATAC | -0.0846
73 | ATCAACAC | 0.113
74 | CCGTGCGA | 0.14
75 | CTGAAAGA | -0.108

Row | Sequence | PBM E-score
76 | TCTAGACA | -0.138
77 | AAGCAGAC | -0.318
78 | AGTGGAAA | -0.173
79 | GGCAATAC | 0.319
80 | CGAGACCG | 0.179
81 | GCCTTCGA | -0.137
82 | CTTATCCA | -0.105
83 | CCATCCCG | -0.0664
84 | AAAAGATA | -0.0528
85 | ACCATGGC | 0.0211
86 | GATTTGCA | -0.121
87 | AACTCCTG | 0.0386
88 | AACCGATA | 0.169
89 | TATCTCAA | -0.218
90 | CTGTCAAA | -0.198
91 | ATAGGCAT | -0.169
92 | ACTACTAT | -0.0231
93 | GTCACACA | -0.19
94 | GATGGCGC | 0.108
95 | CGTGGATC | -0.124
96 | ACGTAAGA | -0.293
97 | GACTCGAA | -0.0121
98 | TAATTCAA | -0.0688
99 | CTGTCGCC | -0.00604
100 | GCGAGTCC | 0.0882

Row | Sequence | PBM E-score
101 | ATCGGGCC | 0.297
102 | AATCAACA | -0.0804
103 | CTTGAGCC | -0.0692
104 | GAGCTCTA | -0.177
105 | CGCCTGGA | -0.0581
106 | GATCACCC | -0.134
107 | CGTGCACC | -0.0024
108 | ACTGCTGG | -0.276
109 | ACCTACTG | -0.114
110 | CTGCGAGA | -0.238
111 | ACAATTCA | -0.162
112 | ATGTATTC | -0.0488
113 | ACACCTGC | -0.0136
114 | TCCTGTAA | -0.164
115 | CTCGGCCA | 0.0161
116 | AAAGTTTG | -0.169
117 | GCTCAGTA | -0.142
118 | ACGAGTAA | -0.0273
119 | CTTATAAC | 0.184
120 | ATACAGCG | 0.003
121 | CTACCCAC | -0.153
122 | TCAACAGA | -0.0107
123 | CGCAGTGC | -0.00674
124 | ACGTATCG | -0.154
125 | AGCGAGAA | -0.258

Row | Sequence | PBM E-score
126 | ACGTGCTC | -0.0864
127 | ACGGCTCA | -0.2
128 | ATACTAAC | 0.0209
129 | CAGAAGCA | -0.0951
130 | ACGTACTG | -0.179
131 | CCCGGGCG | 0.298
132 | CACGTAGG | -0.109
133 | CGGAATTC | 0.0284
134 | CTTATTAC | 0.0671
135 | ACCGTGCC | 0.211
136 | GTAAAGTA | -0.0497
137 | CCAATGTA | -0.126
138 | GCACGACC | -0.176
139 | CAAGTGTC | -0.229
140 | AACCAGAG | -0.249
141 | AAGCGGGT | 0.146
142 | ATTCCCTC | -0.179
143 | CCTTAAGA | -0.0973
144 | GAACAGAA | -0.151
145 | ATATAGAG | -0.107
146 | ACCTCCTA | -0.101
147 | CAGAATCG | 0.0474
148 | GCAGGATA | -0.0221
149 | AGTTACAC | -0.0511
150 | CGACATAC | 0.0202

Row | Sequence | PBM E-score
151 | AGTTGGAT | 0.0412
152 | GACGGCAC | 0.133
153 | GACCCGAC | 0.295
154 | TATCATGA | -0.12
155 | ACCTAGAA | 0.0442
156 | ACCTTATA | 0.0137
157 | CCAAACGG | 0.216
158 | GCCTTCCA | -0.115
159 | AATTGGCC | -0.224
160 | ATTTATAC | 0.194
161 | AGCCGGAC | 0.272
162 | CGCAGGTA | 0.175
163 | GGGGAGAA | 0.179
164 | CGCCCCCC | 0.0618
165 | CCGGTTAA | 0.336
166 | CGTTACTC | -0.0202
167 | CCATCTCA | -0.236
168 | CAAGTCGC | -0.193
169 | ACGAGCAC | -0.213
170 | ACCTTCAA | -0.0982
171 | AGAAATTG | 0.0922
172 | CCATCGCA | -0.036
